Consider 50 sequences from the supplement of paper PMC12645437, “Orthogonal IMiD-Degron Pairs Induce Selective Protein Degradation in Cells” (ACS Chemical Biology, 2025).

Some of the results follow.
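Further: jurkat cells carrying a lentiviral library of mutant zinc finger degrons fused to EGFP plus mCherry, mCherry+ cells FACS sorted, degron abundance counted by next-generation sequencing.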

The assay deals with no compound (DMSO). Nature of the assay: log2 fold change of degron read counts, EGFP-low vs EGFP+ sorted cells; higher = lower degron-EGFP level without compound (poor expression or instability). The settings on record: compound: DMSO control; 18 h.
As to FDCEQCGANFTQKGNLLRHIKL, the “log2 fold change of degron read counts” value is -2.41.

With FGCEVCGAAFTQKGNLLRHIKL, the “log2 fold change of degron read counts” value is -1.46. Take FSCEVCGADFTQKGNLLRHIKL: the “log2 fold change of degron read counts” value was -2.09. Under LNCEICGFRCTQKGNLLRHIKL stands 0.475; under FGCSVCGHRFTQKGNLLRHIKL, 0.291; under FRCPQCGAWFTQKGNLLRHIKL, 0.823. Regarding FRCEICGAYFTQKGNLLRHIKL, the “log2 fold change of degron read counts” value is -0.402. FSCPVCGAVFTQKGNLLRHIKL: the “log2 fold change of degron read counts” value was -0.191.

With LVCNQCGFMCTQKGNLLRHIKL, the “log2 fold change of degron read counts” value is -0.0588. Under FICNVCGAKFTQKGNLLRHIKL stands -1.81. On to FYCDQCGAKFTQKGNLLRHIKL, for which the “log2 fold change of degron read counts” value was -1.03. In the case of FTCDICGAQFTQKGNLLRHIKL it was -1.12; in that of FKCPQCGATFTQKGNLLRHIKL, -1.08. On to FICNQCGHPFTQKGNLLRHIKL, for which the “log2 fold change of degron read counts” value was -0.132. As to FWCEQCGARFTQKGNLLRHIKL, the “log2 fold change of degron read counts” value is -1.21. Under FQCEICGALFTQKGNLLRHIKL stands -1.52.

As to FVCNQCGHTFTQKGNLLRHIKL, the “log2 fold change of degron read counts” value is -0.519. Consider FGCSVCGHHFTQKGNLLRHIKL, for which the “log2 fold change of degron read counts” value came to 0.918. For FACDVCGACFTQKGNLLRHIKL, the “log2 fold change of degron read counts” value was -1.16. For the sequence FFCPICGRNFTQKGNLLRHIKL, the “log2 fold change of degron read counts” value was -0.702.

For the sequence LWCEICGFPCTQKGNLLRHIKL, the “log2 fold change of degron read counts” value stood at 1.52.

As to FMCPQCGAQFTQKGNLLRHIKL, the “log2 fold change of degron read counts” value is -0.568. On to FQCPQCGADFTQKGNLLRHIKL, for which the “log2 fold change of degron read counts” value is -1.38. Turning to FECNICGALFTQKGNLLRHIKL, the “log2 fold change of degron read counts” value is -0.375.

Regarding FICPQCGAIFTQKGNLLRHIKL, the “log2 fold change of degron read counts” value came out at 0.423. In the case of LHCEICGFECTQKGNLLRHIKL it was -1.59; in that of FMCNQCGRFFTQKGNLLRHIKL, 0.773. Under FHCNQCGANFTQKGNLLRHIKL stands -0.361; under FLCEVCGAVFTQKGNLLRHIKL, -0.899. Take FYCDICGAAFTQKGNLLRHIKL: the “log2 fold change of degron read counts” value was -0.904. In the case of FCCNQCGAPFTQKGNLLRHIKL it was -0.275. Regarding FYCPICGHSFTQKGNLLRHIKL, the “log2 fold change of degron read counts” value was -0.855. In the case of FACEVCGAQFTQKGNLLRHIKL, the “log2 fold change of degron read counts” value was -2.28.

For FWCEICGRFFTQKGNLLRHIKL, the “log2 fold change of degron read counts” value was determined as 1.28. On to FNCEICGADFTQKGNLLRHIKL, for which the “log2 fold change of degron read counts” value is -1.57. FRCNQCGAGFTQKGNLLRHIKL: the “log2 fold change of degron read counts” value is -1.17. Take LWCNQCGFVCTQKGNLLRHIKL: the “log2 fold change of degron read counts” value came to 2. In the case of FTCNQCGRNFTQKGNLLRHIKL it was -0.0796; in that of FICEQCGAEFTQKGNLLRHIKL, -2.11; in that of FSCEVCGAKFTQKGNLLRHIKL, -2.76. With FWCNQCGRQFTQKGNLLRHIKL, the “log2 fold change of degron read counts” value is 0.786. Consider FYCNICGAWFTQKGNLLRHIKL, for which the “log2 fold change of degron read counts” value came out at 1.15. With LNCNQCGFRCTQKGNLLRHIKL, the “log2 fold change of degron read counts” value was determined as 1.08. Under FICNICGASFTQKGNLLRHIKL stands -1.66; under FMCDVCGAVFTQKGNLLRHIKL, -0.859. Consider FHCPICGACFTQKGNLLRHIKL, for which the “log2 fold change of degron read counts” value came out at 0.136.

For FFCSVCGHTFTQKGNLLRHIKL, the “log2 fold change of degron read counts” value was -0.0991. Regarding FHCDICGAIFTQKGNLLRHIKL, the “log2 fold change of degron read counts” value is -0.887. For the sequence FYCEICGRVFTQKGNLLRHIKL, the “log2 fold change of degron read counts” value was -0.559. As for LICEICGFYCTQKGNLLRHIKL, the “log2 fold change of degron read counts” value worked out at 1.29.
